PMC4336329 (PLoS ONE, 2015)
The whole screen tested about 310,000 compounds, of which about 14,000 (4.5%) showed an effect of 50% or more. Effects have a minus sign here. Some of the results follow.

molecular target: human ether-à-go-go-related gene (hERG) potassium channel (human, UniProt Q12809); assay: primary screen, population patch clamp on CHO cells stably expressing hERG
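Note: peak tail current of the secondary pulse compared with the same well before compound.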

human ether-à-go-go-related gene (hERG) potassium channel, sequence (Q12809 whole entry, looked up): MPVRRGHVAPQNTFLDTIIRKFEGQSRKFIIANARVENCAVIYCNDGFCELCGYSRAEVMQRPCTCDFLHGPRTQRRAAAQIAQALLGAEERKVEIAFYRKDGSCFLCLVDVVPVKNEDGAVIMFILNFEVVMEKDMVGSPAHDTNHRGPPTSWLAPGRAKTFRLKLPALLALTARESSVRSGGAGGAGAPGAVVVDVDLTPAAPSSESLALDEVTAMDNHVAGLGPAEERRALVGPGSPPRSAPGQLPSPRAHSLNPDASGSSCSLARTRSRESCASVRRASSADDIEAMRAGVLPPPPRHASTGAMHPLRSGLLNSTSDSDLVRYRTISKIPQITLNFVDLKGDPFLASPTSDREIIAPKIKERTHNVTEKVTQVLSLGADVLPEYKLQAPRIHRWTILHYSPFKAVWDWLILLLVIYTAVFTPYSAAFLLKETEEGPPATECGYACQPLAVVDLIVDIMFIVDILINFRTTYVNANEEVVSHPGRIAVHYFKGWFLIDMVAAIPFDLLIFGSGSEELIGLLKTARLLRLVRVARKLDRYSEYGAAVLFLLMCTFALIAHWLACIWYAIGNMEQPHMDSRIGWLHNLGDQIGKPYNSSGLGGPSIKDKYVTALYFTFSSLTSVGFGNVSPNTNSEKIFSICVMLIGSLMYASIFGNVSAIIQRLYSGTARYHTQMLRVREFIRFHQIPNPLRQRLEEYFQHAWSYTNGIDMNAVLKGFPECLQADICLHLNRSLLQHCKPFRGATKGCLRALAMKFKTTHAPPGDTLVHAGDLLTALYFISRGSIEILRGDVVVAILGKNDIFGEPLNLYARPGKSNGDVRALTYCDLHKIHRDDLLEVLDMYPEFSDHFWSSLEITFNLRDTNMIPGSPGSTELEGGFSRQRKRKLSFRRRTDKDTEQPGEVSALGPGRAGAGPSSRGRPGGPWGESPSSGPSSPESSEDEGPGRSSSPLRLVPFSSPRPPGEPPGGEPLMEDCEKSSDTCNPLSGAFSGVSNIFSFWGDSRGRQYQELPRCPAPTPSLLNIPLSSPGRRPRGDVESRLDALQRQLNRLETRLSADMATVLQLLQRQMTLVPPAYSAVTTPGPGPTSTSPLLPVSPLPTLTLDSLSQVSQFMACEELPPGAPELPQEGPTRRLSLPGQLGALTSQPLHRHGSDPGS

Going from COc1cc(O)c(C(CC(=O)N2CCN(c3ccccc3)CC2)c2ccc(N(C)C)cc2)c(OC)c1 (stereo not drawn) to CCCN1CCN(C(=O)c2nn(-c3ccc(OC)cc3)c(=O)c3c2c2ccccc2n3C)CC1, the “hERG current change (%, negative = inhibition) at 10uM” value falls from 13.7% to -3.71%.

Compared with O=C(O)c1ccccc1N=Nc1c(O)[nH]c2ccc([N+](=O)[O-])cc12, Cc1c(C#N)c(O)[nH]c(=O)c1N=Nc1ccc(Cl)c(C(=O)O)c1 is higher in “hERG current change (%, negative = inhibition) at 10uM” value: 6.84% for the first, 16.2% for the second.

Going from COc1cc(NS(=O)(=O)c2ccc(NC(=O)c3cccs3)cc2)nc(OC)n1 to COc1nccnc1NS(=O)(=O)c1ccc(NCc2ccccc2O)cc1, the “hERG current change (%, negative = inhibition) at 10uM” value falls from 10.3% to 7.4%.

First: COc1ccc(Br)cc1-c1nc2c(c(=O)[nH]c(=O)n2Cc2ccccc2)n1C
Second: Cn1c(-c2cccc(OCc3ccccc3)c2)nc2c1c(=O)[nH]c(=O)n2Cc1ccccc1
The “hERG current change (%, negative = inhibition) at 10uM” value of the first is higher: 5.42% for the first, 4.94% for the second.

First: Cc1ccc(OCCN2CCN(C)CC2)c([N+](=O)[O-])c1.O=C(O)C(=O)O
Second: CCOC(=O)N1CCN(C(=O)CSc2ccc(-c3cccc(OC)c3)nn2)CC1
The “hERG current change (%, negative = inhibition) at 10uM” value of the first is higher: 6% for the first, -28.5% for the second.

First: Cn1cc(S(=O)(=O)NC2CCCCC2)c(=O)n(C)c1=O
Second: Cc1noc(C)c1S(=O)(=O)Nc1ccc(C(=O)NC2CCCCCC2)cc1
The “hERG current change (%, negative = inhibition) at 10uM” value of the first is lower: -10.1% for the first, 3.27% for the second.

Going from COc1ccc(C2NCc3ccc4c(c3-n3cccc32)OCO4)cc1O.Cl (stereo not drawn) to O=C1C(=O)N(CCCn2ccnc2)C(c2ccc(Br)cc2)/C1=C(\O)c1ccc2c(c1)OCCO2 (stereo not drawn), the “hERG current change (%, negative = inhibition) at 10uM” value rises from -6.08% to 15.8%.

Going from O=C(Nc1ccc2nc(-c3cccnc3)[nH]c2c1)c1ccco1 to Oc1ccc(-c2csc(-c3cccnc3)n2)cc1O, the “hERG current change (%, negative = inhibition) at 10uM” value falls from 5.88% to 2.09%.

Compared with NC(=O)c1c(NC(=O)CSc2nnc(Cc3ccccc3)n2Cc2ccco2)sc2c1CCC2, COCc1nnc(SCC(=O)Nc2cccc(Cl)c2C)n1-c1ccccc1 is lower in “hERG current change (%, negative = inhibition) at 10uM” value: -12.6% for the first, -48.6% for the second.

First: OC(COc1ccc2cc(Br)ccc2c1)CN1CCOCC1 (stereo not drawn)
Second: c1ccc2sc(NC3=NCN(CCN4CCOCC4)CN3)nc2c1
The “hERG current change (%, negative = inhibition) at 10uM” value of the first is lower: -48.4% for the first, 6.61% for the second.

Compared with CCOc1ccc(S(=O)(=O)N(CC)CC)cc1NC(=O)CSCc1c(C)noc1C, Cc1cc(NC(=O)COC(=O)c2c(C)nn(Cc3ccccc3Cl)c2C)no1 is higher in “hERG current change (%, negative = inhibition) at 10uM” value: -67.2% for the first, 1.07% for the second.

Going from Cc1ccc2nc(NCCO)nc(-c3ccccc3)c2c1 to CSc1nc2ccccc2n1CC(=O)Nc1ccc(C)c(C)c1, the “hERG current change (%, negative = inhibition) at 10uM” value rises from -16.6% to 15%.

Compared with O=C(Nc1ccc2c(c1)C(=O)NC2=O)c1ccccc1Cl, O=c1[nH]c2ccc(NC(=S)NCc3ccccc3)cc2[nH]1 is higher in “hERG current change (%, negative = inhibition) at 10uM” value: -0.898% for the first, 14.4% for the second.

Going from CC[C@@H]1[C@H]2CCCC(=O)N3CC[C@@H](C[C@H]1O)[C@@H]23 to N#Cc1ccccc1S(=O)(=O)N1CCN(CC(=O)NC(=O)NC2CCCCC2)CC1, the “hERG current change (%, negative = inhibition) at 10uM” value falls from 16.7% to -31.6%.

First: Cc1nnc2n(c1=O)N=C(c1ccc(Cl)cc1)CS2
Second: Clc1ccc2nc(-c3ccc(Br)s3)cn2c1
The “hERG current change (%, negative = inhibition) at 10uM” value of the first is lower: 6.25% for the first, 8.14% for the second.

First: Cn1c(CNC(=O)c2ccccc2F)nnc1SCc1ccc(F)cc1
Second: CC(C)N(Cc1ccc(F)cc1)C(=O)c1cc2ccccc2oc1=O
The “hERG current change (%, negative = inhibition) at 10uM” value of the first is lower: -15.3% for the first, 19.5% for the second.

Compared with CC(=O)c1nn(-c2cccc(Br)c2)cc1C(=O)c1ccccc1, Cc1ccc(/C=C/C(=O)c2cc(Br)ccc2OC(=O)c2ccco2)cc1 is lower in “hERG current change (%, negative = inhibition) at 10uM” value: 23.3% for the first, 15.4% for the second.

First: CCN(CC(=O)NC1CCS(=O)(=O)C1)c1ccc([N+](=O)[O-])cc1C#N (stereo not drawn)
Second: Cc1cc(C)cc(C(=O)NC(CC(N)=O)c2ccc(NC3CCCCC3)c([N+](=O)[O-])c2)c1 (stereo not drawn)
The “hERG current change (%, negative = inhibition) at 10uM” value of the first is lower: -1.69% for the first, 1.32% for the second.

Compared with Cc1ccnc2nc(C(=O)Nc3ccc(S(=O)(=O)N4CCCC4)cc3)nn12, CCOC(=O)N1CCN(S(=O)(=O)c2cccc3cccnc23)CC1 is lower in “hERG current change (%, negative = inhibition) at 10uM” value: 11.5% for the first, -9.63% for the second.

Going from C/C(=N\Nc1ccc([N+](=O)[O-])cc1[N+](=O)[O-])C(C)C(C)C (stereo not drawn) to O=C(Nc1ccc([N+](=O)[O-])cc1)Nn1cnnc1, the “hERG current change (%, negative = inhibition) at 10uM” value rises from -11.8% to 15.2%.

Compared with Cc1cccc(CN2CCN(Cc3cnn(-c4ccccc4F)c3)CC2CCO)n1 (stereo not drawn), O=C(NCc1ccccn1)c1ccc(OC2CCN(Cc3ccc(Cl)s3)CC2)cc1 is lower in “hERG current change (%, negative = inhibition) at 10uM” value: -11.3% for the first, -33% for the second.

Compared with O=C(Nc1ccc(N2CCOCC2)cc1)c1cc2c(s1)CCCCC2, N#CCC(=O)Nc1ccc(C(=O)NCC2(N3CCOCC3)CCCCC2)cc1 is lower in “hERG current change (%, negative = inhibition) at 10uM” value: 8.76% for the first, 7.48% for the second.

Compared with C[C@@]12C(=O)N(CCO)CC(=O)N1[C@H](/C=C/c1ccccc1)[C@@H]1C(=O)N(c3ccccc3)C(=O)[C@@H]12, CCOc1ccc(N2C(=O)CC(N(CCc3ccccc3)C(=O)/C=C/C(=O)O)C2=O)cc1 (stereo not drawn) is higher in “hERG current change (%, negative = inhibition) at 10uM” value: -6.44% for the first, 8.98% for the second.

Compared with O=C(c1ccc(Cl)s1)N1CCN(c2nc3ccccc3s2)CC1, O=S(=O)(c1ccc(N2CCCC2c2nc3ccccc3s2)nc1)N1CCOCC1 (stereo not drawn) is lower in “hERG current change (%, negative = inhibition) at 10uM” value: -9.88% for the first, -26.5% for the second.

Going from CCCCn1c(N)c(N(CC(C)C)C(=O)c2ccncc2)c(=O)[nH]c1=O to CCOCCCNC(=O)c1ccc(OC)c(OC2CCN(C(C)C)CC2)c1, the “hERG current change (%, negative = inhibition) at 10uM” value falls from 16.5% to 10.7%.

First: CC(=O)Nc1nc(C)c(C(C)=O)s1
Second: Cc1ccc(C(=O)NNC2=NCCC2)cc1
The “hERG current change (%, negative = inhibition) at 10uM” value of the first is higher: 19.7% for the first, -8.69% for the second.

Compared with CCCOC(=O)c1sc2nc3c(cc2c1N)C(=O)CCC3, Cc1onc(-c2c(F)cccc2Cl)c1C(=O)Nc1nc2c(s1)CCCC2 is lower in “hERG current change (%, negative = inhibition) at 10uM” value: 10.6% for the first, -29.5% for the second.

First: CN1C(=O)N(C)C2(C)CC1(C)N(C)C(=O)N2C
Second: COC(=O)C1=C(C)NC(=O)/C1=C\c1cc(C)n(-c2ccccc2C)c1C
The “hERG current change (%, negative = inhibition) at 10uM” value of the first is higher: 25.7% for the first, 7.07% for the second.

Compared with O=C(NCc1cccnc1)c1cccc2c1C(=O)N(C1CCCCC1)C2, COc1ccccc1C(=O)N/C(=C\c1cn(S(=O)(=O)N(C)C)c2ccccc12)C(=O)NCCN1CCOCC1 is higher in “hERG current change (%, negative = inhibition) at 10uM” value: -15.3% for the first, -2.62% for the second.

First: C/C(=N\N=C(/N)c1nonc1N)c1ccc2c(c1)OCO2
Second: O=C(CN1CCC(O)(c2ccc3c(c2)OCO3)CC1)N1CCOCC1
The “hERG current change (%, negative = inhibition) at 10uM” value of the first is higher: 18.8% for the first, 14.1% for the second.

Going from COC(=O)C1=NNCC12CC(=O)N(c1ccc(Br)cc1)C2=O (stereo not drawn) to COC(=O)N/N=C/c1c(C)nn(-c2cccc(Cl)c2)c1Cl, the “hERG current change (%, negative = inhibition) at 10uM” value rises from 0.162% to 0.835%.

Compared with CC(C)(CO)NCc1c(OCc2ccc(Cl)cc2)ccc2ccccc12.Cl, O=C(COc1ccc2ccc(=O)oc2c1)Nc1ccc(CCO)cc1 is higher in “hERG current change (%, negative = inhibition) at 10uM” value: -75.6% for the first, 4.43% for the second.

Going from Cc1ccn2c(C(=O)N/N=C/c3ccc(CNC(=O)C(=O)Nc4ccc(C)c(C)c4)o3)c(C)nc2c1 to COc1ccc(CCN(Cc2cc3cc(C)c(C)cc3nc2Cl)C(=O)C2CC2)cc1, the “hERG current change (%, negative = inhibition) at 10uM” value rises from -57% to 19.8%.

First: Cl.N=c1sccn1CC(=O)Nc1cccc(S(N)(=O)=O)c1
Second: O=C(NCCS(=O)(=O)N1CCN(c2ccccc2)CC1)c1cccs1
The “hERG current change (%, negative = inhibition) at 10uM” value of the first is higher: 12.5% for the first, -7.47% for the second.

Compared with COc1cccc(C(=O)NCCS(=O)(=O)NCCCc2ccccc2)c1, O=C(CCCNC(=O)/C(=C/c1ccc(Br)cc1)NC(=O)c1ccccc1)OCc1ccccc1 is lower in “hERG current change (%, negative = inhibition) at 10uM” value: -30.2% for the first, -38.8% for the second.

Going from CC(C)C1C(=O)CC(c2ccccc2)NC1c1ccccc1 (stereo not drawn) to Cn1c2ccccc2c2ncn(Cc3ccco3)c(=O)c21, the “hERG current change (%, negative = inhibition) at 10uM” value falls from 14.8% to 0.125%.

Going from Cc1ccc(CSc2nsc(C)c2C#N)cc1 to CNS(=O)(=O)c1ccc(C)cc1, the “hERG current change (%, negative = inhibition) at 10uM” value falls from 19.9% to 5.12%.

First: CCC1(CC)C(=O)NC(=NCCc2c[nH]c3ccccc23)NC1=O
Second: O=C(Cn1ccn(-c2ccc(F)c(Cl)c2)c(=O)c1=O)NCCc1ccccc1
The “hERG current change (%, negative = inhibition) at 10uM” value of the first is higher: 11.7% for the first, -8.97% for the second.

Compared with CCCOC1CCCN(Cc2nc(-c3cnccn3)no2)C1 (stereo not drawn), COc1ccc(-c2nc(CN3CCC(C(=O)NCC4CCCO4)CC3)c(C)o2)cc1OC (stereo not drawn) is lower in “hERG current change (%, negative = inhibition) at 10uM” value: 11.8% for the first, -20.9% for the second.

First: O=C(NCCCCNC(=O)c1ccco1)c1ccco1
Second: CCCC(=O)NC(=S)Nc1ccccc1N1CCOCC1
The “hERG current change (%, negative = inhibition) at 10uM” value of the first is higher: 7.45% for the first, -3.07% for the second.

Going from CCc1ccc(N/C(N)=N/c2nc(CSc3ccccn3)cc(=O)[nH]2)cc1 to COc1cc(C)nc(NC(=S)N(C)C(=O)c2ccccc2)n1, the “hERG current change (%, negative = inhibition) at 10uM” value rises from 3.29% to 18.6%.

Going from CN(C)C1(CNC(=O)c2cc(S(=O)(=O)N3CCOCC3)c(Cl)cc2Cl)CCCCC1 to COc1ccc(Cl)cc1CN1CCN(c2nc(C)cc(C)c2C#N)CC1, the “hERG current change (%, negative = inhibition) at 10uM” value rises from -41.5% to -7.74%.

Compared with COc1ccc(-c2cc(=O)c3c(O)cc(OC4OC(COC5OC(C)C(O)C(O)C5O)C(O)C(O)C4O)cc3o2)cc1O (stereo not drawn), COc1ccc(-c2nnc(Nc3nc4c(OC)cccc4s3)o2)c(OC)c1 is higher in “hERG current change (%, negative = inhibition) at 10uM” value: 9.14% for the first, 18.8% for the second.

For COc1cc(OC)c(OC)cc1/C=N/NC(=O)CCc1c(C)n[nH]c1C, the “hERG current change (%, negative = inhibition) at 10uM” value was 19%.
